SMILES strings stand for the structures. In all, about 340,000 compounds went through this assay and about 170 (0.05%) were called active. Roughly 26% stayed inconclusive and do not appear here. Calls follow the shape of the dose curve; as a rule, active = well fitted inhibition curve with a large enough effect in the signal ratio, with a control signal flat (not every such curve was filed as active); inconclusive = small, poorly fitted or top-dose-only effect, or effect the other way, or a change in a side signal; inactive = flat fitted curve, though single readings scatter; the % refers to the signal ratio. Only a part is listed here, and it is no random draw.
Potency is read from the fitted curve at half-maximal effect.

This assay is described as follows: qHTS Assay to Find Inhibitors of Chronic Active B-Cell Receptor Signaling.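 As to activity change, negative = inhibition: plate controls were basal doxycycline-induced cells for no effect and cells given 10 µM MG132 for full effect.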 The conditions noted are these: ABC-DLBCL IkBa-CBG/CBR reporter, luminescence ratio (green luciferase fused to IkBa over red control in TMD8 lymphoma cells), 4 h; series mostly up to 46.1 µM; activity change, negative = inhibition: at the top concentration. A digest of the protocol: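 Cell line TMD8 (human ABC DLBCL), stably expressing tet-inducible CBG68-IkBa fusion and CBR; IMDM/0.5% FBS; cpd up to 46 uM; dox induction, 4 h, 37C/5% CO2; dual luminescence; green/red ratio; MG132 control.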
(In general: In qHTS, concentration-response curves come from the screen itself.)
On to `CC1(C)OC1COc1c2ccoc2cc2oc(=O)ccc12` (stereo not given), for which the “activity change, negative = inhibition” value is inactive: 0.385%.
With `CCOC(=O)[C@@H]1[C@H]2COc3ccc(Br)cc3[C@@H]2N2C(=O)N(c3ccc(Br)cc3)C(=O)[C@@]12C`, the “activity change, negative = inhibition” value is inactive: 0.286%.
For the molecule `COc1ccccc1N1CCN(c2ccnc3cc(Cl)ccc23)CC1`, the Potency is active: 20 µM.
`C/C=C/C(=O)N(CC)c1ccccc1C`: the “activity change, negative = inhibition” value was inactive: 0.909%.
On the same count and under the same terms, the figure for `C=CC[C@H](CC(=O)NCCO)C(=O)N[C@@H](COC(=O)[C@H](CC=C)CC(=O)OC(C)(C)C)Cc1c[nH]c2ccccc12` is inactive: 0.786%.
For the molecule `CC(C)(C)NC(=O)/C(=C/c1ccccc1F)NC(=O)c1ccc([N+](=O)[O-])cc1`, the “activity change, negative = inhibition” value is inactive: 10.9%.
Same read-out and setting: the figure for `Cc1ccc(S(=O)(=O)N2C[C@@H]3[C@H]4CC[C@H](C4)[C@@H]3[C@@H](C)[C@H]2c2ccn(Cc3ccccc3)c2)cc1` is inactive: 3.52%; for `C=CC[C@@H](CC(=O)N(CCO)Cc1ccccc1)C(=O)NC[C@@H](OC(=O)[C@@H](CC=C)CC(=O)OC(C)(C)C)c1ccccc1` it is inactive: 1.07%.
Same read-out and setting: for `C[C@@H](NC(=O)c1ncn(C)c1C(=O)N[C@H](C)c1ccccc1)c1ccccc1` the value was inactive: 0.532%.
As to `COc1ccc(OC)c(Nc2c3c(nc4ccccc24)CCC3)c1`, the Potency was active: 15.8 µM.
Turning to `C=CCC[C@H](Cc1ccc(F)cc1)C(=O)OC[C@@H](Cc1c[nH]c2ccccc12)NC(=O)[C@@H](CC=C)CC(=O)N[C@@H](CO)Cc1ccccc1`, the “activity change, negative = inhibition” value was inactive: 3.83%.
Turning to `C=CC[C@H](CC(=O)NCCO)C(=O)N[C@@H](C)COC(=O)[C@H](CC=C)CC(=O)OC(C)(C)C`, the “activity change, negative = inhibition” value was inactive: 3.81%.
On the same count and under the same terms, the figure for `Cc1ccc(C)c(OCCn2cc(/C=C(/C#N)C(=O)NCC3CCCO3)c3ccccc32)c1` (stereo not given) is inactive: 3.28%.
Same read-out and setting: for `C[C@H](NC(=O)c1ccccc1Cl)C(=O)NCc1cccs1` the value was inactive: -2.44%; for `CCCCNC(=O)CSc1nc2cc3c(cc2c(=O)n1CCCC(=O)NCCc1ccc(OC)c(OC)c1)OCO3`, inactive: -13.7%; for `C#Cc1ccc([C@@H]2C=C(C(=O)NC3CC3)O[C@H](OCC)[C@H]2CCCO)cc1`, inactive: -3.56%.
For the molecule `CS(=O)(=O)c1ccc(S(=O)CC(=O)Oc2ccc(Cl)cc2)c([N+](=O)[O-])c1` (stereo not given), the Potency is active: 17.8 µM.
As for `Cc1cccc(/C=C/c2onc(C)c2S(=O)(=O)N2CCC(C(=O)N3CCCCC3)CC2)c1`, the “activity change, negative = inhibition” value is inactive: -3.95%.
As for `C=CC[C@@H](CC(=O)N[C@@H](CO)Cc1ccccc1)C(=O)N[C@H](COC(=O)[C@H](CC=C)CC(=O)OC(C)(C)C)Cc1c[nH]c2ccccc12`, the “activity change, negative = inhibition” value was inactive: -8.44%.
On the same count and under the same terms, the figure for `C[C@]12C(=O)N(c3ccc(Br)cc3)C(=O)N1[C@H]1c3ccccc3OC[C@@H]1[C@H]2c1ccccc1` is inactive: 2.94%; for `CCCCNC(=O)CSc1nc2n[nH]c(C)c2c(=N)n1-c1cccc(Cl)c1C` it is inactive: -15.5%.
The same measure, in the same setting: the figure for `NC(=O)C1CCN(c2nc(-c3ccccc3F)cs2)CC1` is inactive: 0.0726%; for `COc1ccc(S(=O)(=O)N(C)C[C@H]2Oc3ccc(NC(=O)Nc4c(C)noc4C)cc3C(=O)N([C@H](C)CO)C[C@@H]2C)cc1` it is inactive: -0.57%.
The same measure, in the same setting: the figure for `COc1cc(/C=C2/SC(=S)N(CC(=O)Nc3cccnc3)C2=O)cc(OC)c1OC` is inactive: 6.55%.
`O=C(C1=C[C@@H](C2CCCCC2)C[C@@H](OCCCCO)O1)N1CCOCC1`: the “activity change, negative = inhibition” value was inactive: -1.88%.
Regarding `O=C1N[C@@H](c2ccccc2)COC(=O)[C@@H](Cc2ccc(F)cc2)CC/C=C/C[C@H]1CC(=O)N(CCO)Cc1ccccc1`, the “activity change, negative = inhibition” value is inactive: 1.13%.
Take `O=C1N[C@@H](Cc2ccccc2)COC(=O)[C@H](Cc2ccc(F)cc2)CC/C=C/C[C@H]1CC(=O)N(CCO)Cc1ccccc1`: the “activity change, negative = inhibition” value was inactive: 1.58%.
On the same count and under the same terms, for `O=C(COc1ccc2c(-c3ccccc3)cc(=O)oc2c1)NC(Cc1c[nH]c2ccccc12)C(=O)O` (stereo not given) the value was inactive: 0.673%; for `[2H]C(CCOS(N)(=O)=O)c1ccccc1` (stereo not given), inactive: 24.1%.
Regarding `COc1ccc(-c2noc(CSc3nc(N)c(-c4ccccc4)c(=O)[nH]3)n2)cc1OC`, the Potency was active: 20.6 µM.
The same measure, in the same setting: for `CCCC(=O)OCCNc1cc(Sc2nccn2C)c2nonc2c1[N+](=O)[O-]` the value was active: 2.91 µM.
With `Cc1csc(CNc2ncnc3ccc(-c4ccccc4Cl)cc23)c1`, the “activity change, negative = inhibition” value is inactive: -4.5%.
Same read-out and setting: the figure for `C[C@H]1COC(=O)[C@H](CC(=O)OC(C)(C)C)C/C=C\C[C@@H](CC(=O)NCCO)C(=O)N1` is inactive: 1.98%.
Turning to `OCC[C@@H]1C[C@H](O)[C@@H](O)[C@]2(OCc3ccccc32)O1`, the “activity change, negative = inhibition” value is inactive: -9.56%.
On the same count and under the same terms, for `C[C@@H]1CN([C@@H](C)CO)C(=O)c2cccc(NC(=O)Nc3ccc4c(c3)OCO4)c2O[C@H]1CN(C)S(=O)(=O)c1cn(C)cn1` the value was inactive: -0.29%; for `COc1ccc([C@@]2(C(C)C)ON(c3ccccc3C(F)(F)F)C2=O)cc1`, inactive: -4.84%.
The same measure, in the same setting: for `C=CC[C@@H](CC(=O)OC(C)(C)C)C(=O)OC[C@H]1CCCN1C(=O)[C@@H](CC=C)CC(=O)NCCO` the value was inactive: 2.38%; for `CC(C)[C@H](NC(=O)N1CCn2c1nc1ccccc12)C(=O)N[C@@H](Cc1ccccc1)C(=O)O`, inactive: -1.53%.
Same read-out and setting: the figure for `O=c1c2ccccc2ncn1-c1ccc(Cl)cc1` is inactive: -21.5%.
Regarding `COC(=O)[C@@H]1[C@H]2C[C@H]3c4[nH]c5ccccc5c4CCN3C[C@@H]2CC[C@@H]1O`, the “activity change, negative = inhibition” value was inactive: -16.3%.
In the case of `CC(/C=N/NC(=O)c1ccncc1)=C\c1ccco1`, the “activity change, negative = inhibition” value is inactive: -26.3%.
Still for that read-out and setting: for `C[n+]1cc[nH]c1SCC(=O)c1ccc(Cl)cc1` the value was inactive: -4.44%.
`COC(=O)Nc1ccc2c(c1)N(C(=O)CCN1CCN3CCCC3C1)c1ccccc1CC2` (stereo not given): the “activity change, negative = inhibition” value is inactive: -1.68%.
For the molecule `Cc1ccc(N/N=C(\Cc2nc3ccccc3[nH]2)c2ccccc2)cc1`, the Potency was active: 23.1 µM.
As to `COc1ccc2cc([C@@H](C)C(=O)O)ccc2c1`, the “activity change, negative = inhibition” value was inactive: -22.2%.
As to `O=C(C1=C[C@H](c2ccc(C(F)(F)F)cc2)C[C@H](OCc2ccc(CO)cc2)O1)N1CCN(Cc2ccccc2)CC1`, the “activity change, negative = inhibition” value was inactive: 7.7%.
On the same count and under the same terms, for `CC1CNCCN1S(=O)(=O)c1cccc2cnccc12` (stereo not given) the value was inactive: -6.67%.
For the molecule `O=C(Cc1ccc(-n2c(=O)c3ccccc3n(Cc3ccccc3Cl)c2=O)cc1)NCC1CCCO1` (stereo not given), the Potency was active: 2.82 µM.
Regarding `Cc1cc2c(s1)c1cnn(-c3ccccc3)c(=O)c1n2C`, the “activity change, negative = inhibition” value was inactive: 0.123%.
For the molecule `CCOC(=O)[C@@H]1[C@H]2COc3ccc(Br)cc3[C@@H]2N2C(=O)N(c3ccc(Cl)cc3)C(=O)[C@@]12C`, the “activity change, negative = inhibition” value was inactive: 0.68%.
On the same count and under the same terms, the figure for `O=C(Nc1ccccc1)C1=C[C@H](c2ccc(C(F)(F)F)cc2)C[C@H](OCc2ccc(CO)cc2)O1` is inactive: -1.87%; for `Nc1ncnc2c1ncn2C1O[C@H](CO)[C@@H](O)[C@@H]1O` (stereo not given in full) it is inactive: -1.78%.
Same read-out and setting: for `COc1ccc(NC(=O)N(C)C[C@H]2Oc3ccc(NC(=O)CCN4CCOCC4)cc3C(=O)N([C@H](C)CO)C[C@@H]2C)cc1` the value was inactive: 0.254%; for `CN(C)S(=O)(=O)Nc1cccc(Br)c1`, inactive: 2.06%.
On the same count and under the same terms, for `O=S1(=O)c2ccc(Br)cc2N2CCC[C@H]2CN1Cc1ccccc1` the value was inactive: -2.1%; for `O=C1C2C3c4ccccc4C(c4ccccc43)[C@@H]2c2nc3ccccc3n21` (stereo not given in full), inactive: 3.83%; for `CCN1C(=O)[C@@H]2[C@@H](c3ccc(-c4ccc(F)cc4)c(OC)c3)N3CCCC[C@@]3(C(=O)OC)[C@@H]2C1=O`, inactive: -0.673%.
`COc1cc(OC)cc(C(=O)N/N=C/c2ccc(OC)c(COc3ccc(F)cc3)c2)c1`: the Potency was active: 10 µM.
With `O=C(C1=C[C@H](c2coc3ccccc3c2=O)C[C@H](OCc2ccc(CO)cc2)O1)N1CCN(Cc2ccc3c(c2)OCO3)CC1`, the “activity change, negative = inhibition” value is inactive: -2.42%.
Turning to `CCOc1ccc2nc(NS(=O)(=O)Cc3ccccc3)sc2c1`, the Potency was active: 7.31 µM.
Regarding `C=CCC[C@H](Cc1ccc(F)cc1)C(=O)OC[C@@H](C)NC(=O)[C@@H](CC=C)CC(=O)N[C@@H](CO)Cc1ccccc1`, the “activity change, negative = inhibition” value was inactive: 0.112%.
The same measure, in the same setting: for `C[C@]12CC[C@@H]3c4ccc(O)cc4CC[C@H]3[C@@H]1C[C@@H](O)[C@@H]2O` the value was inactive: -2.86%; for `O=S(=O)(c1cccc(C(F)(F)F)c1)N(CCCN1CCOCC1)Cc1cccs1`, inactive: 1.11%; for `CCOC(=O)[C@@H]1[C@H]2COc3ccccc3[C@@H]2N2C(=O)N(c3cccc(Cl)c3)C(=O)[C@@]12C`, inactive: 14.4%.
Turning to `CC(C)(O)[C@H](O)COc1c2ccoc2cc2oc(=O)ccc12`, the “activity change, negative = inhibition” value was inactive: 1.61%.
Same read-out and setting: the figure for `CCN1C(=NCC(C)C)N[C@@H](c2cccc(C(F)(F)F)c2)C(C(=O)OC)=C1C` is inactive: -23.2%.
On the same count and under the same terms, the figure for `Cc1ccc(S(=O)(=O)N2CCC[C@H]2C(=O)OCC(=O)Nc2ccc3c(c2)OCO3)cc1` is inactive: -3.02%.
On the same count and under the same terms, for `Cc1ccc(C)c(CN2CCCN(Cc3cc(C)ccc3C)S2(=O)=O)c1` the value was inactive: -12.4%; for `O=C(CCSCc1ccccc1Cl)N1CCN(c2cccc(Cl)c2)CC1`, inactive: 10.9%.
In the case of `O=C(Cc1cc(=O)[nH][nH]1)N/N=C/C=C/c1ccccc1`, the “activity change, negative = inhibition” value was inactive: 11.2%.
Still for that read-out and setting: the figure for `COc1ccc(S(=O)(=O)N(C)C[C@H]2Oc3ccc(NS(=O)(=O)c4cn(C)cn4)cc3C(=O)N([C@H](C)CO)C[C@@H]2C)cc1` is inactive: -5.73%.
Still for that read-out and setting: the figure for `OCC[C@H]1C[C@@H](O)[C@H](O)[C@@]2(CCc3ccccc3CO2)O1` is inactive: -0.64%; for `COc1cccc(CNc2ncnc3ccc(-c4c(C)noc4C)cc23)c1` it is inactive: -11.9%; for `C#CCNC(=O)C1=C[C@H](c2ccc(C(F)(F)F)cc2)C[C@H](OCCCCO)O1` it is inactive: 8.55%.
As for `CC(C)n1cc(/C=C2/NC(=O)N(c3cccc(Cl)c3)C2=O)c2ccccc21`, the “activity change, negative = inhibition” value is inactive: 11.7%.
The same measure, in the same setting: the figure for `COC(=O)C1=C(C)N(Cc2ccccc2)C(=NCc2cc(OC)c(OC)c(OC)c2)N[C@H]1c1ccccc1` is inactive: -3.6%.
The same measure, in the same setting: the figure for `COc1ccc2nc(C)cc(SCC(=O)O)c2c1` is inactive: 0.201%; for `CC1CCN(C(=O)c2[nH]cnc2C(=O)N[C@H](C)c2ccccc2)CC1` it is inactive: -0.483%.
Still for that read-out and setting: for `C#Cc1ccc([C@H]2C=C(C(=O)NCc3ccccc3)O[C@@H](OCC)[C@@H]2CCCO)cc1` the value was inactive: -0.659%; for `O=C(c1ccccc1)[C@H]1CC=CC[C@H]1C(=O)O`, inactive: -5.12%.
Consider `N#C/C(=C\N1CCOCC1)c1ccccc1`, for which the “activity change, negative = inhibition” value was inactive: 0.0428%.
As for `CC(=O)/C(=C\N(C)C)Sc1ccc(C)cc1`, the “activity change, negative = inhibition” value is inactive: 5.96%.
Same read-out and setting: the figure for `O=C(CCCN1C(=O)S/C(=C/C=C/c2ccccc2)C1=O)Nc1ccc(C(=O)O)cc1` is inactive: -4.51%.
Take `CC(C)(C)OC(=O)C[C@@H]1C/C=C\C[C@@H](CC(=O)N(CCO)Cc2ccccc2)C(=O)NC[C@@H](c2ccccc2)OC1=O`: the “activity change, negative = inhibition” value is inactive: -1.99%.
For `CN(C)CCC(c1ccc(Cl)cc1)c1ccccn1` (stereo not given), the Potency entry is “inactive”.

The values are drawn from PubChem BioAssay AID493014 (National Center for Advancing Translational Sciences (NCATS), 2011).
